Source: the supplement of paper PMC10126150
Sequences with one replicate were seen in a single cluster, so their values are uncertain.

Tested on: ATP
Experiment: switch fluorescence ratio, 500 uM ATP over buffer (Cy3 cluster intensity, sum of 5 cycles each) (fold (ratio)); higher = stronger signal-on switching upon ATP binding; sequences stand for … in TCGTCGGCAGCGTCAGATGTGTATAAGAGACAGTTTTTTTTTTTTTTTTTTTTTTTTT…TC
Settings: aptamer strand: ATP DNA aptamer (quencher-CACCTGGGGGAGTATTGCGGAGGAAGG + anchor), 100 nM annealed; ATP concentration: 500 uM; one replicate
Procedure, shortened: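 The fluorescence ratio divides summed target-cycle Cy3 intensity by summed buffer-cycle Cy3 intensity for each cluster and is averaged per switch-domain sequence. Cy3-labelled switching-strand clusters on a modified Illumina MiSeq flow-cell were annealed to 100 nM quencher-labelled ATP aptamer, then imaged in selection buffer and again after 15 min with 500 uM ATP at 22 °C. Five such cycles were run, with NaOH stripping and re-annealing between them, and clusters outside 100-1000 RFU were excluded.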
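Note: ATP exposure 15 min at 22 °C before imaging.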

| Sequence | switch fluorescence ratio |
| --- | --- |
| TAAATTCCAG | 1.03 |
| AGGCCTTGG | 1 |
| ATTTATAGCC | 0.999 |
| ACTCCGATC | 4.11 |
| AGCGAGGGTG | 1.04 |
| AAGTGGGACT | 1.04 |
| AATTGGAACA | 1.01 |
| GGACGCATTA | 1.68 |
| GTAGATGGGT | 1 |
| GTCCACTTCG | 1.02 |
| ATGCTAATG | 1.02 |
| CACGATATAA | 1.1 |
| CAAATTAAAC | 1.06 |
| TCAGGGAGCC | 0.996 |
| TACACTTTGA | 1 |
| ATCGTCACAG | 1.04 |
| GACGTCGGGT | 0.949 |
| ACGTTTGAAT | 1.02 |
| AGGGGTCTGC | 0.95 |
| CAAACATATC | 1.02 |
| TAGGATCACT | 1.01 |
| AATACCGGTT | 1.02 |
| ACTCCACTAG | 2.36 |
| TCTAAGCAAT | 2.84 |
| CATGCTGTT | 0.951 |
| ATGGCCTACA | 1.03 |

| Sequence | switch fluorescence ratio |
| --- | --- |
| CTTGACACTC | 1.02 |
| TCAGATGGTC | 0.995 |
| ATCTTTTAGA | 0.984 |
| GACCGCTCTC | 1.64 |
| GAACCGAATT | 1.05 |
| CAAGAGTTCT | 0.963 |
| GGCTGCAGCA | 1.03 |
| CTGGGCGCCT | 1.04 |
| CTTATCCACG | 1.05 |
| TTGAGGGTCT | 1 |
| TATTTACGTG | 1.03 |
| ATGTTGCGTT | 0.977 |
| CGTTAAATAC | 1.96 |
| GATCATACCT | 1.29 |
| GCTAGACCGA | 1.01 |
| CTTGGTATAC | 1.38 |
| AACTGTCATG | 1.03 |
| GACAAGTGAA | 1.01 |
| GCTTCGGGAA | 1.13 |
| TGCTAGGATT | 0.951 |
| TTAGTCACGA | 0.972 |
| CTATAGCTAT | 1.17 |
| CGGGAAG | 1.04 |
| GTGTTGATCG | 0.982 |
| ACCTCCGCCT | 4.59 |
| CATGTCTG | 0.992 |

| Sequence | switch fluorescence ratio |
| --- | --- |
| CGCCATGTCG | 1 |
| ATTGACATTA | 0.982 |
| GATCAGGTAC | 1.06 |
| CTAAGGCTAA | 1.02 |
| TCTGACGGTA | 1.59 |
| CGGTTCGTGT | 0.989 |
| TTATGCCAGC | 1 |
| AGTTGGTAAC | 1 |
| CATCCAGGGA | 1.05 |
| GTTGCGATAG | 2.44 |
| GATCTGACTC | 1.13 |
| CAATCTGGAT | 1.01 |
| TAGTCCGACA | 1.08 |
| TAAGGTGTGT | 1.11 |
| CCTTTGAAGT | 1.04 |
| CCTTTGCGCC | 1.96 |
| ATTGACTAT | 1.01 |
| TCGGCCGAGC | 1.01 |
| AAACTCATG | 0.966 |
| ACCTGCTAGA | 1.05 |
| CTGCTTAGTA | 0.997 |
| GCGTTACTTC | 1.07 |
| AATGTAGCCG | 0.962 |
| TCTCCAGATT | 0.997 |
| GGCCTACCAG | 1.02 |
| ACTAAAATTC | 1.22 |

| Sequence | switch fluorescence ratio |
| --- | --- |
| GCGTGTGTAG | 1.02 |
| TTCGTTAAAT | 0.996 |
| ACCAGCTAGT | 1.01 |
| AGTATATTAG | 0.955 |
| ATACTAGGTG | 1.74 |
| ATAGCCGGGG | 1.02 |
| TGCGTTTTCA | 0.997 |
| TCAAGCGATT | 1.07 |
| TTAAGCCAAC | 1.08 |
| TTCTGTTTG | 0.996 |
| ACCGTGTAGG | 1.18 |
| CGGCGTCCTT | 0.949 |
| AGCCCTAGTT | 1.13 |
| GGTGCATGTT | 0.964 |
| GCCTAGAAGG | 0.988 |
| AGTCTTGGG | 1.04 |
| TTAATACGCG | 1.17 |
| GGGCAATGT | 1.18 |
| ATCTAAGTCT | 1.02 |
| TGATCTGAGG | 1.01 |
| AAGCAAACT | 1.5 |
| ACGGGGAAAC | 1.06 |
| GCACGGCCG | 0.975 |
